Experimental data: PMC4336329 (PLoS ONE, 2015)
Screen size: about 310,000 compounds; about 2,200 (0.71%) showed an effect of 50% or more. The effect is printed as a negative number. The list shows a part of the results.

Each compound was assayed against human ether-à-go-go-related gene (hERG) potassium channel (human, UniProt Q12809) (assay: primary screen, population patch clamp on CHO cells stably expressing hERG).
Sequence of human ether-à-go-go-related gene (hERG) potassium channel (Q12809 whole entry, looked up): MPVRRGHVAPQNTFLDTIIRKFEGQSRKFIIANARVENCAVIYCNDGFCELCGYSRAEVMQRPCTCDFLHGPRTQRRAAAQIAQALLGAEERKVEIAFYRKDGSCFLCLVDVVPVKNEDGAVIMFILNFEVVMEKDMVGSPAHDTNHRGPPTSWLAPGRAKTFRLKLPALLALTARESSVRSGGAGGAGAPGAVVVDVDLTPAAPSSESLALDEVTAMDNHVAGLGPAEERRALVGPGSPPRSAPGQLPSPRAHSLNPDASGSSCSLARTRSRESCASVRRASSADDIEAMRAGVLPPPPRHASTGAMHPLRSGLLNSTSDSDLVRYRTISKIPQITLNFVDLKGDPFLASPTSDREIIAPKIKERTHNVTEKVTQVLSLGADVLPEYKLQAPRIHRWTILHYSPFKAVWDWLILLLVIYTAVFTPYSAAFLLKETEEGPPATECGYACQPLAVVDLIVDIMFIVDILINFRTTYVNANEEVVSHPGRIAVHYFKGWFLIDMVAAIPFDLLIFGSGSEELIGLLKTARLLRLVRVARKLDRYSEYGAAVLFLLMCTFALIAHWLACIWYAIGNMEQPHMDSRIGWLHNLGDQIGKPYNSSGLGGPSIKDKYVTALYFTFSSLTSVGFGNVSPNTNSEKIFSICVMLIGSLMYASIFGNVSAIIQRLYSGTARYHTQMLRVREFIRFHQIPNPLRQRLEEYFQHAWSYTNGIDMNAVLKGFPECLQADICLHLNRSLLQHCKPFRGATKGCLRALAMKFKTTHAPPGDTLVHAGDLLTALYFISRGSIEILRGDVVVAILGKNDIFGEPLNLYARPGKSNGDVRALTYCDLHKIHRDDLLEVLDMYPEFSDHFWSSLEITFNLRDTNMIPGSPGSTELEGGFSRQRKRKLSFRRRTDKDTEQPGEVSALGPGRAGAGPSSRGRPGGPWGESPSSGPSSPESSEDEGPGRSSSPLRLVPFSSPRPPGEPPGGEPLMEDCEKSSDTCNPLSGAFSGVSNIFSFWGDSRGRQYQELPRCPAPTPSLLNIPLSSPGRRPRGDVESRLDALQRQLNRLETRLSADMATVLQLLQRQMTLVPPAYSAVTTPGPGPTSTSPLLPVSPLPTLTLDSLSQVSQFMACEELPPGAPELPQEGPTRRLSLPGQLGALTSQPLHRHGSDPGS

Row | SMILES | hERG current change (%, negative = inhibition) at 1uM [%]
1 | O=C(O)[C@@H](c1ccccc1)N1Cc2ccccc2C1=O | 13.8
2 | CCc1cccc(CC)c1NC(=S)N1CCn2cccc2C1c1cccnc1 (centres unmarked) | 15.5
3 | CC1CCN(C(=O)C2CCN(S(=O)(=O)c3cccs3)CC2)CC1 | 12.9
4 | CC(=O)Nc1ccc(S(=O)(=O)Nc2cc(C)c(-n3nc4ccccc4n3)cc2O)cc1 | 1.25
5 | CCC(=O)Nc1ccc(C(=O)CSc2nc3ccccc3cc2CC)cc1 | -1.39
6 | O=C(Nc1ccc(S(=O)(=O)N2CCCCC2)cc1)c1ccncc1 | 2.75
7 | COc1ccc(C)cc1NC(=O)COC(=O)c1c(C)noc1C | -1.51
8 | N#Cc1cc(S(=O)(=O)c2ccc(Cl)cc2)c(N)[nH]c1=O | 3.56
9 | COC(=O)[C@H](Cc1c[nH]c2ccccc12)NC(=O)Nc1ccccc1OC | 9.9
10 | Cc1cc(C)cc(OCC(=O)N2N=C(c3cccnc3)CC2(O)C(F)(F)F)c1 (centres unmarked) | 1.73
11 | COc1ccc(OC)c(-c2nc3ccccc3nc2-c2ccccc2)c1 | 10.2
12 | COc1ccc(N(C)C(=O)Cn2c(=O)oc3ccccc32)c(OC)c1 | 3.65
13 | Cc1[nH]n(-c2ncc(-c3ccc(Cl)cc3)s2)c(=O)c1C(c1ccc(Cl)cc1)C(C#N)C#N (centres unmarked) | -2.41
14 | NC(=O)C1=C[C@@H](c2ccc(C(F)(F)F)cc2)C[C@@H](OCc2ccc(CO)cc2)O1 | 3.1
15 | Cc1ccc(OCC(=O)NNC(=O)C(=O)NC(C)(C)C)cc1 | 4.19
16 | CCOC(=O)N1CCN(C(=O)CCS(=O)(=O)c2ccc3c(c2)CC(C)N3C(=O)CC)CC1 (centres unmarked) | 9.44
17 | O=C(CN1CCc2ccccc2C1)Nc1cccc(S(=O)(=O)N2CCCC2)c1 | 10.2
18 | CN(C)c1ccc(C(CNC(=O)c2ccccc2)c2c[nH]c3ccccc23)cc1 (centres unmarked) | 3.71
19 | Cc1ccc(S(=O)(=O)Oc2ccc(/C=C(/NC(=O)c3ccccc3)C(=O)O)cc2)cc1 | 15

Row | SMILES | hERG current change (%, negative = inhibition) at 1uM [%]
20 | CCOCCCNC(=O)C1CCN(C(=O)Nc2ccc(Cl)cc2)CC1 | -1.62
21 | CCCCN1CC(O)=C(c2nc3ccccc3s2)C1=N | 15.2
22 | COc1cccc(OC)c1-c1nn(-c2ncc(C(F)(F)F)cc2Cl)c(=O)o1 | 15.6
23 | CCC1=NN2C(=N)/C(=C/c3c(C)nn(-c4ccccc4)c3Cl)C(=O)N=C2S1 | -5.19
24 | Cc1cc(C)cc(NC(=O)Nc2ccc(-n3ccc(C(F)(F)F)n3)cc2)c1 | 11.5
25 | CCOc1ccc(C(=O)Nc2ccc3c(c2)OCCO3)cc1[N+](=O)[O-] | 9.7
26 | COc1ccc(NC(=O)c2ccc3[nH]c(=O)c(=O)[nH]c3c2)c(OC)c1 | 11.3
27 | Nc1nc(NC(=O)C(Cl)(Cl)Cl)nn1-c1ccccc1 | 18.4
28 | Cc1cccc2c(C(=O)N3CCN(c4ccccn4)CC3)cc(-c3cccc(Br)c3)nc12 | 8.68
29 | c1ccc(-c2cnn3nnnc3n2)cc1 | -0.158
30 | CC(C)CCNC(=O)CN(Cc1ccco1)C(=O)c1snc(C(N)=O)c1N | 4.01
31 | CC/C(C)=N/Nc1ccc(S(=O)(=O)N2CCCC2)cc1[N+](=O)[O-] | 8.37
32 | Cc1ccc(C(=O)CSc2nc(C)cc(C)c2C(N)=O)cc1 | 0.19
33 | COc1ccccc1NC(=O)CSc1nn2c(=O)c(C)nnc2s1 | 10.8
34 | COc1ccccc1NC(=O)Cc1nnc(SCC(=O)Nc2ccc(F)cc2F)n1C | 12.4
35 | N#Cc1cnc2ncnn2c1-c1ccccc1 | 14.7
36 | Cc1c(NC(=O)c2ccco2)cccc1-c1nc2cccnc2s1 | -4.68
37 | COCCn1c(CN2CC(C)CC(C)C2)nc2c1c(=O)n(C)c(=O)n2C (centres unmarked) | 3.09
38 | CCN1CCN(c2nc3ccccc3nc2NS(=O)(=O)c2ccc(NC(C)=O)cc2)CC1 | 1.95

Row | SMILES | hERG current change (%, negative = inhibition) at 1uM [%]
39 | COCCCn1c(C(=O)Nc2ccc3c(c2)OCO3)cc2c(=O)n3ccccc3nc21 | 13.5
40 | CCC(C)[C@H](NC(=O)N1CC(=O)Nc2ccccc21)C(=O)N[C@H](Cc1c[nH]c2ccccc12)C(=O)O (some centres unmarked) | 16.8
41 | CCC(C)C12CN3CCN(CC(C)(C3)C1=O)C2 (centres unmarked) | 10.7
42 | CC(=O)Nc1ccccc1NC(=O)c1cc(C)ccc1C | 14.6
43 | O=C(Nc1ccccc1F)c1cc2c(s1)-c1ccccc1S(=O)(=O)C2 | 2.35
44 | CCCCCCOc1cccc(N)c1 | 9.05
45 | CCCc1cc(=O)oc2cc(OC3CCCCC3=O)ccc12 (centres unmarked) | 6.05
46 | CC1CCN(CC(=O)Nc2cccc(C(=O)Nc3cccc(C(F)(F)F)c3)c2)CC1 | -1.73
47 | COc1cc(CNCc2ccco2)cc(OC)c1O.Cl | 18.4
48 | Cc1cc(C)c(NC(=O)c2ccccc2C(=O)c2ccccc2)c(C)c1 | 13.9
49 | COc1ccc(-c2nc(-c3cccs3)c(-c3cccs3)[nH]2)cc1OC | 20.3
50 | CC(Cc1ccccc1)NC(=S)CN1CCCC1=S (centres unmarked) | 23
51 | O=S(=O)(c1ccc(F)cc1)N1CCCN(Cc2c(F)cccc2F)CC1 | 9.03
52 | CCOc1ccccc1C(=O)N[C@H](C(=O)OCc1cc(=O)oc2cc(C)ccc12)C(C)C | 2.83
53 | CCc1ccccc1NC(=O)c1cnc2n(c1=O)CCS2 | 9.9
54 | O=C(NCc1ccc(Cl)cc1)C1CCC(CNc2c(N3CCCC3)c(=O)c2=O)CC1 (centres unmarked) | 3.95
55 | Cc1cccc(N/C=C(\[N+](=O)[O-])S(=O)(=O)c2ccccc2)c1C | 9.29
56 | COc1ccc(/C=N/NC(=O)C(C)n2cnc3ccccc3c2=O)cc1OC (centres unmarked) | 0.713
